# The whole screen tested about 110,000 compounds, of which about 230 (0.21%) showed an effect of 50% or more. Some of the results follow.
# Biological target: DPAP1 (Plasmodium falciparum, UniProt Q8IIJ9)
# Test: primary screen, percent inhibition; read by cleavage of a fluorogenic dipeptide substrate; higher = more effect of the substance
# Set-up: species or system P. falciparum D10 trophozoite lysates; single well
# 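Note: 30 min substrate incubation versus DMSO and 10 µM JCP410 controls.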
# Chain of DPAP1 (Q8IIJ9 whole entry, looked up): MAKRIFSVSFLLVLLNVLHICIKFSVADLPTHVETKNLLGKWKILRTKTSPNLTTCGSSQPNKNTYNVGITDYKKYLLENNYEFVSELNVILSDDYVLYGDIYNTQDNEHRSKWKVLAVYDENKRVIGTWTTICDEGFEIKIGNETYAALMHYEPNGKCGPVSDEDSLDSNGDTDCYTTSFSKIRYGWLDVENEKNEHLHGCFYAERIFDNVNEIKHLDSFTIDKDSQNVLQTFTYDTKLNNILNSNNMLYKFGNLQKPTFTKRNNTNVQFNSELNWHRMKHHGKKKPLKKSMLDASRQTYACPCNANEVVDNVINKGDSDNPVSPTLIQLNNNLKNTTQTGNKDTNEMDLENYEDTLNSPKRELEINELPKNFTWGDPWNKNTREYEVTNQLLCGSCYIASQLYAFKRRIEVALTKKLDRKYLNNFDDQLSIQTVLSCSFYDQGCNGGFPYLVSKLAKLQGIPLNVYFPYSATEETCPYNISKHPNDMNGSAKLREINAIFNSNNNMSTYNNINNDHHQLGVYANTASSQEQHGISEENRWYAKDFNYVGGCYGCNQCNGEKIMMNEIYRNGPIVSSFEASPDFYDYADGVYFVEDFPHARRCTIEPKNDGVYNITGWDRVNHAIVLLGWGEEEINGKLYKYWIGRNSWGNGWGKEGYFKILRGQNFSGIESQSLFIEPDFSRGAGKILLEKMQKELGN
row,Compound,% Inhibition @ 10 uM [%]
1,O=C(Cn1cnc2c(nnn2-c2ccc(F)cc2)c1=O)N1CCOCC1,-2.16
2,COc1ccc(S(=O)(=O)NC(C)C)cc1C(=O)N1CCOCC1,1.32
3,Fc1ccc(-c2nnc(S)n2CCCN2CCOCC2)cc1,-3.87
4,COc1ccc(OC)c(NC(=O)CN(C2CCCCC2)S(C)(=O)=O)c1,0.408
5,COC(=O)C1=C(C)N(CCc2ccccc2)C(=O)/C1=C\c1cccs1,-15.6
6,O=C(NCc1cccnc1)c1cc(S(=O)(=O)N2CCCCC2)ccc1Cl,11.7
7,CCc1ccc(CNCc2c(C(=O)O)n(C)c3cc(OC)ccc23)cc1,-0.712
8,C=CCN(C(=O)C1CCC(CNS(=O)(=O)c2cccc3nsnc23)CC1)C1CCCCC1 (stereo not drawn),-0.465
9,CCOc1ccc(NC(=O)C2CC(=O)N(CC)/C(=N/c3cccc(F)c3)S2)cc1 (stereo not drawn),-6.94
10,Cc1ccc(C(C)C)c(OC/C(O)=C(\C#N)c2nc3ccccc3[nH]2)c1,-3.78
11,COc1ccc(-c2c3c(=O)n(C)c(=O)n(C)c3cn2-c2cccc(C#N)c2)cc1,0.366
12,NS(=O)(=O)c1ccc(CCNC(=O)c2cc(-c3cccs3)nc3ccccc23)cc1,-5.67
13,OC1CCN(Cc2ccc(F)cc2)C1 (stereo not drawn),-5.31
14,COc1cc2c(cc1OC)CN(S(=O)(=O)c1ccc(OC(F)(F)F)cc1)CC2,0.248
15,Cc1n[nH]c(C)c1S(=O)(=O)N1CCCC(C(=O)Nc2nccs2)C1 (stereo not drawn),2.39
16,COc1ccc(/C=C2\CCc3ccccc3C2=O)cc1Br,0.287
17,O=C(Nc1ccccc1F)C(F)(F)C(F)(F)C(=O)Nc1ccccc1F,8.05
18,COCc1nn2cc(-c3cccc(OC)c3)nc2s1,2.41
19,Cc1cc(-c2ccccc2)nc2cc(C(=O)O)nn12,-5.28
20,COc1ccc(NC(=O)c2cccc(OC(F)F)c2)c(C)c1,-5.6
21,CCC(C)c1ccccc1OCC(=O)Nc1ccc(S(=O)(=O)N2CCOCC2)cc1 (stereo not drawn),1.57

row,Compound,% Inhibition @ 10 uM [%]
1,O=C1C(Cl)=C(Nc2ccccc2O)C(=O)N1c1cccc(Cl)c1,-1.07
2,Cn1ncc2c(NCCO)ncnc21,0.925
3,CC1CCCC(C)N1CCCNC(=O)CCn1c(=O)c2cccn2c2cccnc21 (stereo not drawn),-1.57
4,Cc1ccc(NC(=O)/C=C/c2ccccc2Cl)cc1,-3.94
5,CCn1cc(/C=C(\NC(=O)c2ccccc2F)C(=O)N2CCN(C)CC2)c2ccccc21,-0.0235
6,CCN(CC)C(=O)CN(c1cc(C)ccc1OC)S(=O)(=O)c1ccc(C)cc1,0.324
7,CCC1(C)CC(=O)c2c(ccc3oc(C(=O)N4CCC5(CC4)OCCO5)c(C)c23)O1 (stereo not drawn),-0.447
8,CCOC(=O)N1CCN(C2=NS(=O)(=O)C(c3ccc(C)cc3)=C2C)CC1,5.42
9,COc1ccc(C2NC(C(=O)O)Cc3c2[nH]c2ccccc32)c(OC)c1OC (stereo not drawn),-1.8
10,CC1C=CCC2C(=O)N(c3cccc(Cl)c3)C(=O)C12 (stereo not drawn),-3.01
11,O=C(O)c1ccc2c(c1)C(=O)N(c1ccncc1)C2=O,-1.77
12,O=C(NCCc1ccccc1)c1nnc(Cc2ccc(F)cc2Cl)o1,0.974
13,C=CCn1c(SCc2cc(C(C)=O)ccc2OC)nnc1-c1cc2ccccc2o1,-2.91
14,COCC(=O)Nc1cc(Cl)ccc1C,0.467
15,Cc1cc(=O)n2nc(N(C)CC(=O)NCCc3ccc(Cl)cc3)sc2n1,1.38
16,C=CCn1c(C)nc2c(cnn2-c2ccccc2)c1=O,-3.27
17,CN1CCN(CCC/N=c2\c([N+](=O)[O-])c(O)oc3ccccc23)CC1,-8.15
18,CC1CCN(c2c(NCc3ccc(C(=O)N(C)C4CCCCC4)cc3)c(=O)c2=O)CC1,-0.522
19,O=C1NC(=O)/C(=C\c2ccc(O)c(Br)c2)S1,-0.357
20,CC1=C(C(=O)N2CCCC2)C2(CCN(Cc3ccccc3)CC2)OC1=O,-4.38
21,COc1ccc(S(=O)(=O)N(CC(=O)Nc2c(Cl)cccc2Cl)Cc2ccccc2)cc1,-11.9

row,Compound,% Inhibition @ 10 uM [%]
1,O=C(Nc1ccc(Cl)cc1Cl)c1ccc(Cl)cc1,2.94
2,Cc1ccc(NS(=O)(=O)c2ccc(-n3cccn3)cc2)nc1,1.27
3,COc1ccc(C=C2C(=O)OC3(CCCCC3)OC2=O)c(OC)c1OC,-5.14
4,COc1ccc(CNc2ccc(C)cc2Br)cc1OC,-5.98
5,CCSc1nnc(-c2ccccc2Cl)o1,1.83
6,CCOC(=O)c1sc2nc(C)cc(C)c2c1NC(=O)c1ccccc1OC,-0.403
7,CCc1nnc2c3ccccc3nc(NCCc3ccccc3)n12,3.59
8,CC(=O)N1C(=O)C2(C(C#N)=C(N)Oc3[nH]nc(-c4cccs4)c32)c2ccccc21 (stereo not drawn),0.777
9,C#CCSc1nc2c(c(=O)n1-c1ccc(OC)cc1)C1(CCCCC1)Cc1ccccc1-2,-3.77
10,Cc1ccc(CCNC(=O)CCCn2ccc3cc(S(=O)(=O)N4CCCC4)ccc32)cc1,-7.94
11,COc1ccc(CN2CCN(S(=O)(=O)c3cccc4nsnc34)CC2)c(OC)c1OC,-5.03
12,O=C(CCCN1C(=O)c2cccc3cccc(c23)C1=O)N1CCN(c2ccccc2)CC1,8.06
13,COc1cccc(Nc2ncccc2[N+](=O)[O-])c1,-0.0953
14,c1ccc(CN2CCN(C3CCCCC3)CC2)cc1,-3.85
15,O=C1c2cccnc2C(=O)N1CCc1ccc(S(=O)(=O)NC2CCCCCCC2)cc1,-0.231
16,COc1ccc(OC)c(/C=C2/Sc3ccccc3C2=O)c1,2.76
17,CC(C)C[C@H](NC(=O)OCCN1C(=O)c2ccccc2C1=O)C(=O)NCC#N,-3.04
18,Cc1ccc(CN2CCC(CNS(=O)(=O)c3ccc(-c4ccc(O)nn4)s3)CC2)cc1,9.54
19,CCCCN1C(=O)N(C)C2C1N(C)C(=O)N2CCCC (stereo not drawn),0.215
20,CCCN1Cc2cccc(C(=O)NC(C)c3ccc4c(c3)OCCO4)c2C1=O (stereo not drawn),1.23
21,CC1CCN(c2c(-c3ccccc3)c(=O)c2=O)CC1,5.13

# Reference: PMC6919601, “Identification of Plasmodium dipeptidyl aminopeptidase allosteric inhibitors by high throughput screening” (PLoS ONE, 2019)
